PubChem BioAssay AID1460 (National Center for Advancing Translational Sciences (NCATS), 2008)
In all, about 270,000 compounds went through this assay and about 5,800 (2.1%) were called active. The shares of active, inactive and inconclusive entries below differ from those in the screen. Calls follow the shape of the dose curve; as a rule, active = well fitted inhibition curve with a large enough effect; inconclusive = small, poorly fitted or top-dose-only effect; inactive = flat fitted curve, though single readings scatter. Where the call is inconclusive, the potency comes from a doubtful curve fit.

The compounds below were run against Microtubule-associated protein tau (Homo sapiens) (UniProt P10636) (assay: qHTS for Inhibitors of Tau Fibril Formation, Thioflavin T Binding). Conditions: recombinant tau K18 P301L (four-repeat tau fragment), heparin-induced fibrillization, ThT fluorescence; series mostly up to 57.4 µM; activity, negative = inhibition: at the top concentration.
Chain of UniProt P10636 (P10636 whole entry, looked up, the tested form may be a part): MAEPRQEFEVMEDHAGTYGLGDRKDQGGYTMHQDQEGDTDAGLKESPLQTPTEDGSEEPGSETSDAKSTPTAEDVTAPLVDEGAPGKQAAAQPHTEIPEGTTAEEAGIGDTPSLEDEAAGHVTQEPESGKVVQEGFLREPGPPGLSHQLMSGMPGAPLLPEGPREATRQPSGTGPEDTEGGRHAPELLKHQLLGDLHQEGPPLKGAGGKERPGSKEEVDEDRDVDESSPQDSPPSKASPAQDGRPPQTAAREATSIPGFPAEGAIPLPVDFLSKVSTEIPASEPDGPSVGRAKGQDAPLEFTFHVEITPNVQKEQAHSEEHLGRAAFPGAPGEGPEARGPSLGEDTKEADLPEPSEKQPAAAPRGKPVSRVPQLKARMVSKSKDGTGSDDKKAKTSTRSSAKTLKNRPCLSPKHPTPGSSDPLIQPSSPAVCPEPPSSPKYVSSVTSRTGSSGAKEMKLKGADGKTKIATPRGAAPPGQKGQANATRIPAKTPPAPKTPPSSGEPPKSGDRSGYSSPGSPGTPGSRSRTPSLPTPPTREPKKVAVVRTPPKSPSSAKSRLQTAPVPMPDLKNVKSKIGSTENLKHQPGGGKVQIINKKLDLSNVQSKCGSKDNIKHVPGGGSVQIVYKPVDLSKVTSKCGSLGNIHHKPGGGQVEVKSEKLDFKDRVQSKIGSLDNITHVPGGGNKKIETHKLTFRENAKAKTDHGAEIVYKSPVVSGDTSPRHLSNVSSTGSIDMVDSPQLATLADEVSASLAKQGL
In short: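 Aggregation was driven by heparin (20 uM final) acting on recombinant tau […] bearing P301L in 100 mM sodium acetate pH 7; fibrils were detected with Thioflavin T.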
% is scaled to controls: 0 for no effect and ±100 for the full control effect; potency is read from the fitted curve at half-maximal effect; tags tell the direction and shape of the fitted curve.
Also: nearly all actives have a fitted effect of over 55% in size.

Compound | Potency | activity, negative = inhibition
Cc1occc1-c1nnc(SCC(=O)c2cc3ccccc3oc2=O)o1 | inconclusive: 7.94 µM [inhibitor, partial curve] | –
O=C(O)c1ccc(N2C(=O)CC(N3CCC(c4nc5ccccc5[nH]4)CC3)C2=O)cc1 (stereo not given) | – | inactive: -8.16%
COc1ccc(C(=O)N/N=C\c2coc3ccccc3c2=O)cc1 | inconclusive: 3.98 µM [inhibitor, partial curve] | –
C=CCn1c(=O)/c(=C2/Sc3ccccc3N2CC)s/c1=C1/C(=O)NN=C1C | – | inactive: 2.61%
CCc1nnc2c3ccccc3nc(N3CCN(c4ccc(C)cc4C)CC3)n12 | – | inactive: -13.5%
CC(C)n1cnc2cc(NCc3ccco3)ccc21 | inconclusive: 20 µM [inhibitor, partial curve] | –
O=C(NCc1cccs1)[C@@H]1CSC2c3ccccc3C(=O)N21 (stereo not given in full) | inconclusive: 35.5 µM [inhibitor, single point] | –
COc1ccc(/C=C2\C(=O)c3ccccc3OC2c2ccccc2)cc1 (stereo not given) | inconclusive: 10 µM [inhibitor, partial curve, poor fit] | –
Cc1ccccc1NC(=O)/C(C#N)=C/c1ccsc1 | inconclusive: 31.6 µM [inhibitor, single point] | –
CCC(C)n1ncn(-c2ccc(N3CCN(c4ccc(O)cc4)CC3)cc2)c1=O (stereo not given) | inconclusive: 14.1 µM [inhibitor, partial curve] | –
Cc1ccc2nc(NC(=O)c3cc(=O)c4cc(C)c(C)cc4o3)sc2c1 | inconclusive: 8.91 µM [inhibitor, partial curve] | –
CC1=C(/C=C/C(C)=C/C=C/C(C)=C/C=C/C=C(C)/C=C/C=C(C)/C=C/C2=C(C)C(=O)CCC2(C)C)C(C)(C)CCC1=O | inconclusive: 15.8 µM [inhibitor, partial curve] | –
C=C1CC[C@H](O)C/C1=C/C=C1\CCC[C@]2(C)C([C@H](C)CCCC(C)(C)O)CC[C@@H]12 (stereo not given in full) | inconclusive: 6.31 µM [inhibitor, full curve, poor fit] | –
COc1ccc(-c2cc(C(F)(F)F)n3nc(C(=O)NCc4ccco4)cc3n2)cc1OC | inconclusive: 28.2 µM [inhibitor, partial curve] | –
Cc1ccccc1C(=O)Nc1ccc(Br)cn1 | – | inactive: 2.62%
CCOC(=O)C(=CNc1ccc2c(c1)c1ccccc1n2CC)C(=O)OCC | inconclusive: 8.91 µM [inhibitor, partial curve] | –
CC(C)Oc1ccc(C(=O)Nc2ccccc2N2CCCC2)cc1 | inconclusive: 25.1 µM [inhibitor, partial curve, poor fit] | –
O=C(/C=C/c1cn(CC(O)CN2CCCCCC2)c2ccccc12)c1ccccc1 (stereo not given) | inconclusive: 25.1 µM [inhibitor, single point] | –
CCCOc1ccc(C(=O)Nc2ccc(N(C)C)cc2)cc1 | inconclusive: 1.12 µM [inhibitor, full curve] | –
COc1ccc(-n2ccnc(NCCc3ccc(S(N)(=O)=O)cc3)c2=O)cc1 | – | inactive: -11.9%
COc1ccc(NS(=O)(=O)c2nnc(NC(=O)c3ccccc3F)s2)cc1 | inconclusive: 10 µM [inhibitor, partial curve] | –
COc1ccccc1NC(=O)CSc1nc2c(oc3ccccc32)c(=O)n1-c1ccc(C)cc1 | – | inactive: -5.89%
CC(C)(C)c1ccc(-c2nc(C=O)c3ccccn23)cc1 | inconclusive: 22.4 µM [inhibitor, partial curve] | –
COc1ccccc1N1C(=O)CC(Nc2ccc(N3CCOCC3)cc2)C1=O (stereo not given) | active: 28.2 µM | –

Compound | Potency | activity, negative = inhibition
c1ccc(-c2cc3c(N4CCN(c5ncccn5)CC4)ncnc3s2)cc1 | inconclusive: 8.91 µM [inhibitor, partial curve, poor fit] | –
CCC(C)C(=O)Nc1nnc(SCC(=O)Nc2ccc(F)cc2)s1 (stereo not given) | inconclusive: 11.2 µM [inhibitor, partial curve] | –
NC(=O)COC(=O)CCCSc1nc2ccccc2s1 | – | inactive: -4.73%
CN(C)Cc1ccc(O)c(CCc2ccccc2)n1 | – | inactive: -3.03%
Cc1cc(Br)ccc1NC(=O)c1cc2c(s1)-c1ccccc1SC2 | – | inactive: -0.203%
Fc1ccc(NC(=S)NN=C2CCCCCC2)cc1 | – | inactive: -19.7%
CC(C)Oc1ccc(C2c3c(oc4ccccc4c3=O)C(=O)N2CCCN2CCOCC2)cc1 (stereo not given) | – | inactive: -23%
CCOC(=O)c1c(NC(=O)CN2C(=O)CN(C)C2=O)sc(C)c1C | – | inactive: -3.53%
Cc1nn(Cc2ccc(Cl)c(Cl)c2)c(C)c1NC(=O)c1cc(C2CC2)on1 | inconclusive: 8.91 µM [inhibitor, partial curve] | –
O=C(Nc1ccc(-c2nc3cc(NC(=O)c4ccccc4Cl)ccc3o2)cc1)c1ccccc1Cl | inconclusive: 1.58 µM [inhibitor, full curve, poor fit] | –
COc1ccc(Nc2c3c(nc4ccc(NC(=O)/C=C/c5cc(OC)c(OC)c(OC)c5)cc24)CCCC3)cc1OC | inconclusive: 25.1 µM [inhibitor, partial curve] | –
O=C(Nc1ccccc1O)c1ccccc1O | – | inactive: -16.1%
O=C(C1=C(O)C(=O)N(Cc2ccco2)C1c1cccnc1)c1cc2ccccc2o1 (stereo not given) | inconclusive: 31.6 µM [inhibitor, single point] | –
CN(CC(=O)Nc1cccc(F)c1)CC(=O)Nc1ccc(Cl)cc1[N+](=O)[O-] | inconclusive: 25.1 µM [inhibitor, partial curve] | –
O=[N+]([O-])c1ccccc1S(=O)(=O)Oc1ccc(/C=N/n2cnnc2)cc1 | inconclusive: 17.8 µM [inhibitor, partial curve] | –
C/C(CC(=O)N1CCCC1)=N\NC(=O)c1cc2ccccc2cc1O | active: 12.6 µM | –
Cc1cc[n+](-c2[nH]c(=O)sc2/C=N/NC(=O)c2ccccc2[O-])cc1C | inconclusive: 31.6 µM [inhibitor, single point] | –
CN(C)C(=O)c1ccc(NC(=O)Cn2nnnc2-c2ccccc2F)cc1 | – | inactive: -1.41%
COc1ccc(-c2noc(CCC(=O)N(C)c3ccccc3C)n2)cc1 | inconclusive: 39.8 µM [inhibitor, single point] | –
COc1ccc(N2CCN(C(=O)CSc3n[nH]c(-c4ccccc4)n3)CC2)cc1 | inconclusive: 25.1 µM [inhibitor, partial curve] | –
S=C(NC1CC2CCC1C2)N1CCN(c2cccc(Cl)c2)CC1 (stereo not given) | – | inactive: -14.6%
Oc1ccc(-c2nc3ccccn3c2NCc2ccc3c(c2)OCO3)cc1 | inconclusive: 39.8 µM [inhibitor, single point] | –
CC(C)n1c2ccccc2c2nnc(SCC(=O)Nc3ccccc3C(=O)O)nc21 | – | inactive: 8.23%
COc1ccc(NC(C)=O)cc1NC(C)c1nc2sc(C)c(C)c2c(=O)[nH]1 (stereo not given) | inconclusive: 14.1 µM [inhibitor, single point] | –

Compound | Potency | activity, negative = inhibition
COCCN=c1scc(-c2ccco2)n1/N=C/c1ccc(O)c(O)c1O | active: 12.6 µM | –
NC(=O)C1CCN(C(=O)COc2ccc(Nc3ccccc3)cc2)CC1 | inconclusive: 22.4 µM [inhibitor, single point] | –
CC(=O)c1cc2ccc(O)cc2oc1=O | inconclusive: 14.1 µM [activator, partial curve] | –
O=C(c1ccc(C(F)(F)F)cc1)N1CCC(c2noc(-c3ccc(S(=O)(=O)N4CCCC4)cc3)n2)CC1 | – | inactive: -7.86%
O=C(CCc1nc2cccnc2n1Cc1cccs1)Nc1cccc(C(F)(F)F)c1 | inconclusive: 3.98 µM [inhibitor, partial curve] | –
Cc1ccc(NNC2CC(=O)N(c3cccc(Cl)c3)C2=O)cc1 (stereo not given) | inconclusive: 14.1 µM [inhibitor, partial curve] | –
CCC12CN3CC(CC)(CN(C1)C3c1c(O)ccc3ccccc13)C2=O (stereo not given) | inconclusive: 25.1 µM [inhibitor, single point] | –
O=C(N/N=C/c1cccc(C(F)(F)F)c1)c1cc2c(s1)-c1ccccc1CC2 | inconclusive: 14.1 µM [inhibitor, partial curve] | –
O=C(Nc1cc(Cl)c(O)c(Cl)c1)C1CCCO1 (stereo not given) | – | inactive: 0.406%
Nn1c(Nc2ccccc2)nc2sc3c(c2c1=O)CCCC3 | inconclusive: 22.4 µM [inhibitor, partial curve] | –
COc1ccc(/C=N/c2c(-c3ccco3)nc3ccccn23)cc1OC | active: 22.4 µM | –
Cc1ccccc1C(=O)N(Cc1ccc(N(C)C)cc1)Cc1ccco1 | inconclusive: 12.6 µM [inhibitor, single point] | –
CCOc1cccc(/C=C/c2ccc3ccccc3n2)c1OC(C)=O | inconclusive: 39.8 µM [activator, single point] | –
C/C(=N\Nc1ccc(C(=O)O)cc1)c1ccc(-n2ccnc2)cc1 | inconclusive: 3.98 µM [inhibitor, partial curve] | –
Cc1oc(C)c2c(=O)ccc3c(c12)OC(N)=C(C#N)C3c1ccccc1Cl (stereo not given) | active: 20 µM | –
N#Cc1ccc(-c2cccs2)nc1SCc1c(F)cccc1Cl | – | inactive: 5.86%
COc1ccc(N(CC(=O)NCc2ccc(F)cc2)S(=O)(=O)c2c(C)noc2C)cc1 | – | inactive: -2.68%
Cc1ccccc1OCC(=O)OCC(=O)c1ccc(-c2ccccc2)cc1 | inconclusive: 1.78 µM [inhibitor, full curve, poor fit] | –
COc1ccc(N2CCN(C(=O)CCNS(=O)(=O)c3cccs3)CC2)cc1 | inconclusive: 17.8 µM [inhibitor, partial curve] | –
COc1ccccc1C(=O)NC1CCN(C(=S)NCCc2ccccc2)CC1 | – | inactive: -3.77%
CCOc1cccc(NC(=O)c2ccc(S(=O)(=O)N3CCCC3)cc2)c1 | inconclusive: 7.94 µM [activator, single point] | –
COc1ccc(-n2c(COc3ccc(C)cc3)nnc2SCC(N)=O)cc1 | – | inactive: -17.7%
